According to paper PMC12820563:
The list shows a part of the results. The list includes weakly bound sequences.

target: T1, MBP-FoxP3dN (UniProt Q99JB6); assay: PD-seq (MBP pull-down with sequencing); settings: 20 mM Tris-HCl pH 7.5, 100 mM NaCl, 1.5 mM MgCl2, 0.4 uM protein, 0.1 uM dsDNA library, 30 min, room temperature, amylose pull-down; high values mean tight binding; double strand, one strand shown
T1 sequence: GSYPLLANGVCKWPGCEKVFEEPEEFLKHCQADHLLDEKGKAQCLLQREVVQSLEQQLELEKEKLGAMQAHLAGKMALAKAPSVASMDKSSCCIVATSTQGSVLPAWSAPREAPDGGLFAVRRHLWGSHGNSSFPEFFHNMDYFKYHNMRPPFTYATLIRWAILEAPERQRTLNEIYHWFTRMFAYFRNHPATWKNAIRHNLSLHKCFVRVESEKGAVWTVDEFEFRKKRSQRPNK

| Sequence | binding signal (RPM ratio (pull-down/input)) |
| --- | --- |
| GATGATTGTTCTCCCAGCTGATGAATTCAATACGTCGAGTAAACAAATTTTCCTAATCTTTCTGTTCAAGCGCCATCTAC | 0.445 |
| GATGATTGTTCTCCCAGCTGATGAATTCTGACCGTCGAGTAAACAAATTTTCCTAATCTTTCTGTTCAAGCGCCATCTAC | 0.388 |
| GATGATTGTTCTCCCAGCTGATGAATTCTCCGACTCGAGTAAACAAATTTTCCTAATCTTTCTGTTCAAGCGCCATCTAC | 0.218 |
| GATGATTGTTCTCCCAGCTGATGAATTTAACTCTTCGAGTAAACAAATTTTCCTAATCTTTCTGTTCAAGCGCCATCTAC | 0.383 |
| GATGATTGTTCTCCCAGCTGATGAATTGGGCATTTCGAGTAAACAAATTTTCCTAATCTTTCTGTTCAAGCGCCATCTAC | 5.5 |
| GATGATTGTTCTCCCAGCTGATGAATTTATGGCCTCGAGTAAACAAATTTTCCTAATCTTTCTGTTCAAGCGCCATCTAC | 1.29 |
| GATGATTGTTCTCCCAGCTGATGAATTAATACGCTCGAGTAAACAAATTTTCCTAATCTTTCTGTTCAAGCGCCATCTAC | 0.487 |
| GATGATTGTTCTCCCAGCTGATGAATTCGAGTCGTCGAGTAAACAAATTTTCCTAATCTTTCTGTTCAAGCGCCATCTAC | 0.55 |
| GATGATTGTTCTCCCAGCTGATGAATTTGCGTCCTCGAGTAAACAAATTTTCCTAATCTTTCTGTTCAAGCGCCATCTAC | 2.49 |
| GATGATTGTTCTCCCAGCTGATGAATTCCGCCATTCGAGTAAACAAATTTTCCTAATCTTTCTGTTCAAGCGCCATCTAC | 5.49 |
| GATGATTGTTCTCCCAGCTGATGAATTGCTCCTATCGAGTAAACAAATTTTCCTAATCTTTCTGTTCAAGCGCCATCTAC | 0.548 |
| GATGATTGTTCTCCCAGCTGATGAATTCGGCCTATCGAGTAAACAAATTTTCCTAATCTTTCTGTTCAAGCGCCATCTAC | 1.74 |
| GATGATTGTTCTCCCAGCTGATGAATTCAGCAAATCGAGTAAACAAATTTTCCTAATCTTTCTGTTCAAGCGCCATCTAC | 0.539 |
| GATGATTGTTCTCCCAGCTGATGAATTGCTGGGTTCGAGTAAACAAATTTTCCTAATCTTTCTGTTCAAGCGCCATCTAC | 0.61 |
| GATGATTGTTCTCCCAGCTGATGAATTATTTATCTCGAGTAAACAAATTTTCCTAATCTTTCTGTTCAAGCGCCATCTAC | 2.19 |
| GATGATTGTTCTCCCAGCTGATGAATTGGGAGTGTCGAGTAAACAAATTTTCCTAATCTTTCTGTTCAAGCGCCATCTAC | 0.883 |

| Sequence | binding signal (RPM ratio (pull-down/input)) |
| --- | --- |
| GATGATTGTTCTCCCAGCTGATGAATTTCGTCATTCGAGTAAACAAATTTTCCTAATCTTTCTGTTCAAGCGCCATCTAC | 1.56 |
| GATGATTGTTCTCCCAGCTGATGAATTGGTGATCTCGAGTAAACAAATTTTCCTAATCTTTCTGTTCAAGCGCCATCTAC | 0.824 |
| GATGATTGTTCTCCCAGCTGATGAATTGATAAACTCGAGTAAACAAATTTTCCTAATCTTTCTGTTCAAGCGCCATCTAC | 0.537 |
| GATGATTGTTCTCCCAGCTGATGAATTCTGCGGGTCGAGTAAACAAATTTTCCTAATCTTTCTGTTCAAGCGCCATCTAC | 0.928 |
| GATGATTGTTCTCCCAGCTGATGAATTTTATAGATCGAGTAAACAAATTTTCCTAATCTTTCTGTTCAAGCGCCATCTAC | 0.401 |
| GATGATTGTTCTCCCAGCTGATGAATTAGTCCGTTCGAGTAAACAAATTTTCCTAATCTTTCTGTTCAAGCGCCATCTAC | 0.434 |
| GATGATTGTTCTCCCAGCTGATGAATTTCCCAGATCGAGTAAACAAATTTTCCTAATCTTTCTGTTCAAGCGCCATCTAC | 0.152 |
| GATGATTGTTCTCCCAGCTGATGAATTTCCCTCTTCGAGTAAACAAATTTTCCTAATCTTTCTGTTCAAGCGCCATCTAC | 0.262 |
| GATGATTGTTCTCCCAGCTGATGAATTAACACCTTCGAGTAAACAAATTTTCCTAATCTTTCTGTTCAAGCGCCATCTAC | 0.408 |
| GATGATTGTTCTCCCAGCTGATGAATTGCTCATTTCGAGTAAACAAATTTTCCTAATCTTTCTGTTCAAGCGCCATCTAC | 0.686 |
| GATGATTGTTCTCCCAGCTGATGAATTTGAGACTTCGAGTAAACAAATTTTCCTAATCTTTCTGTTCAAGCGCCATCTAC | 0.562 |
| GATGATTGTTCTCCCAGCTGATGAATTTCAATCCTCGAGTAAACAAATTTTCCTAATCTTTCTGTTCAAGCGCCATCTAC | 0.37 |
| GATGATTGTTCTCCCAGCTGATGAATTTTAGTGTTCGAGTAAACAAATTTTCCTAATCTTTCTGTTCAAGCGCCATCTAC | 1.21 |
| GATGATTGTTCTCCCAGCTGATGAATTAGATCCGTCGAGTAAACAAATTTTCCTAATCTTTCTGTTCAAGCGCCATCTAC | 0.24 |
| GATGATTGTTCTCCCAGCTGATGAATTGCAGAATTCGAGTAAACAAATTTTCCTAATCTTTCTGTTCAAGCGCCATCTAC | 1 |
